Assay [1] has as its target T1, human interleukin 13 receptor alpha 2 (IL-13Rα2), biotinylated (human, UniProt Q14627 27-343, limits assumed, biotinylated (site not stated)).
T1 construct: The methods give construct limits only for IL-13Rα1 and IL-4Rα1; For IL-13Rα2 they say only that the biotinylated receptor was captured on the SA chip; also called IL13RA2; CD213a2
T1 sequence (looked up): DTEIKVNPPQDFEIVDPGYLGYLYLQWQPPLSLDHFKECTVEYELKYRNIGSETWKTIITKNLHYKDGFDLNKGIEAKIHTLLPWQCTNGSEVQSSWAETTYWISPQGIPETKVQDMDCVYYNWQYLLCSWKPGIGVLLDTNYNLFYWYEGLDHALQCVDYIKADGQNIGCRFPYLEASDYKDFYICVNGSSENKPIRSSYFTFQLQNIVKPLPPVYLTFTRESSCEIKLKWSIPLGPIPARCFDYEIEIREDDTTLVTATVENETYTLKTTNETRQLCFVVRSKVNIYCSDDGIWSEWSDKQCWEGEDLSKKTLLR
Put plainly: SPR, kinetic fit. The procedure:
(§1) Surface Plasmon Resonance. SPR experiments were conducted on a Biacore T100 instrument. Experiments used a Biacore SA sensor chip (GE Healthcare). Biotinylated IL-13Rα1 and IL-13Rα2 receptors were captured at a low density (100-200 RU) and kinetic runs were conducted at 40 μL/min. An unrelated biotinylated protein was immobilized as a reference surface for the SA sensor chip with matching RU to the experimental surface. All data was analyzed using the Biacore T100 evaluation software version 2.0 with a 1:1 Langmuir binding model. Serial dilutions of unbiotinylated IL-13 variants in the running buffer [1×HBS-P (GE Healthcare)+0.5% BSA] were flowed over the chip and IL-13Rα1/IL-13Rα2 were regenerated by using one 60 second injections of 7 mM glycine (pH 3.0).
(In general: In SPR one partner is held on a chip, and binding of the other changes the refractive index at the surface.)

Assay [2] addresses T1, human interleukin 13 receptor alpha 2 …. Description: SPR (Biacore T100), biotinylated receptor on SA chip, 1:1 kinetic fit. As to the method:
as §1

By Kd is commonly meant the free concentration of one partner at which half of the binding sites on the other are occupied at equilibrium, for simple one-to-one binding. A higher Kd goes with weaker binding. Usually koff stands for a measure of how fast the partners let go of each other. High values mean fast dissociation, low ones slow dissociation. In general, kon refers to the second-order rate constant of association. A low value points to slow association.

B1: wild-type human IL-13 (ligand)
chain: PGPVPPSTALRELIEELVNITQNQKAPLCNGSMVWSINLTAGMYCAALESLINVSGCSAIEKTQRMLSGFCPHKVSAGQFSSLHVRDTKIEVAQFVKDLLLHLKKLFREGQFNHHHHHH
notes: also called IL-13 wildtype; IL-13 wt
As to B1, in assay [1], the dissociation constant (Kd) worked out at 1 pM, the koff turned out to be 8.4e-05 s⁻¹ and the kon came to 5e+07 M⁻¹ s⁻¹. Besides, in assay [2], the Kd was 1 pM, the dissociation rate constant (koff) stood at 8.4e-05 s⁻¹ and the kon turned out to be 5e+07 M⁻¹ s⁻¹.

These data come from US20210214410A1 (Stanford University, published 2021).
